The results in this text go back to the supplement of paper PMC12889115.

The other results are listed elsewhere or left out. Single values are uncertain, as repeats are few or missing.
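Note: polymyxin B level opens the outer membrane while sparing the inner membrane, with novobiocin wells as reference growth inhibitor.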

The assay deals with Salmonella enterica serovar Typhimurium SL1344. Description: bacterial growth OD600 after 18 h in MHB with 0.5 µg/mL polymyxin B; higher = more bacterial growth (less inhibition). The conditions noted are these: 25 µM; polymyxin B 0.5 µg/mL; system: broth. On the procedure:
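Secondary screen of the 553 primary hits at 25 µM. (i) S. Typhimurium SL1344 grown in Mueller-Hinton broth with 0.5 µg/mL polymyxin B, OD600 read after 18 h. (ii) SAFIRE assay: RAW 264.7 macrophages infected with S. Typhimurium sifB::gfp (MOI 30); compound added 2 h post-infection; cells fixed at 18 h; GFP-positive pixel fraction per macrophage imaged by confocal microscopy and expressed as % of DMSO control.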
In the case of `CN(C(=O)c1ccccn1)C(Cc1ccccc1)C1CCN(C(=O)/C=C/c2ccccc2)CC1` (configuration not stated), the “bacterial growth OD600” value is 0.01. The result for `COc1cccc(CN(C)Cc2nc(-c3ccc(C(F)(F)F)cc3)oc2C)c1` reads 0; that for `O=C(CCC1(Cc2ccc(Cl)cc2)CCC(=O)N1)NCc1ccc(C(F)(F)F)cc1` (configuration not stated), 0.004; that for `CCN1C(=O)CC(CC(=O)N2CCCC(c3ccccc3)CC2)(c2cccc(C(F)(F)F)c2)C1=O` (configuration not stated), -0.009. On to `Cc1ccccc1CCC1CCCN(C(=O)CC2CC2)C1` (configuration not stated), for which the “bacterial growth OD600” value was 0.497. For `C=C(C)CN(CC)C(=O)c1cc(COc2cc(C)c(Cl)c(C)c2)on1`, the “bacterial growth OD600” value is -0.013.

For `CCCCn1c(CN2CCC(C(O)CC)CC2)cnc1S(=O)(=O)CCCC(C)C` (configuration not stated), the “bacterial growth OD600” value stood at 0.393.
